Experimental data as given in US20210061922A1 (published 2021).

Molecular target: Her2 (human, UniProt P04626 in part)
Test: SPR

B1: Bispecific (switchblade): trastuzumab light chain - protease site - antiCD16 - linker - trastuzumab heavy chain (bispecific antibody)
chain: DIQMTQSPILLSASVGDRVTITCRASQDVNTAVAWYQQRTNGSPRLLIYSASFLYSGVPSRFSGSRSGTDFTLTISSLQPEDIADYYCQQHYTTPPTFGAGTKVEIKRTVAAPSVFIFPPSDEQLKSGTASVVCLLNNFYPREAKVQWKVDNALQSGNSQESVTEQDSKDSTYSLSSTLTLSKADYEKHKVYACEVTHQGLSSPVTKSFNRGECGGAGGSTSTSGRSANPRGGEVQLTESGGEDVQAGGSLRLSCSASGLTFSSYNMGWFRRAPGKEREFVASITWSGRDTFYADSVKGRFTISRDNAKNTVYLQMSSLKPEDTATYYCAANPWPVAAPRSGTYWGEGTQVTVASGAGAS[about 200 residues not given here]
Kd: 0.74 nM
